These results are taken from ChEMBL document CHEMBL5308541, “MAIP: An Open-Source Tool to Enrich High-Throughput Screening Output and Identify Novel, Druglike Molecules with Antimalarial Activity” (ACS Med Chem Lett, 2023).

Out of some 150,000 compounds screened, about 540 (0.36%) showed an effect of 50% or more. This is one part of the list.

In the assay the test system is Plasmodium falciparum. Nature of the assay: Primary screen in NF54 nanoGlo assay, in single point, at 2uM, 72h; a lower Z score goes with more inhibition. Particulars: timepoint 72 hour. The assay is classed as functional, Erythrocyte.
For `Cc1cc(C(=O)N2CC(N3CCCCC3)C2)c2cccc(C)c2n1`, the “% Inhibition” value was -3% and the Z score amounted to 0.64.

On to `Cc1cc(NC[C@H](O)c2ccc(O)cc2)nc(N)n1`, for which the “% Inhibition” value is recorded as -16% and the Z score is recorded as 3.27.

As for `Cc1cc(CN2CCN(CC3(CN4CCN(Cc5cc(C)no5)CC4)COC3)CC2)on1`, the “% Inhibition” value is given as 8% and the Z score is recorded as -1.48.

With `O=C(Nc1cccc(N2CCC(N3CCN(c4ncnc5ccccc45)CC3)CC2)c1)c1ccncc1`, the “% Inhibition” value is on record as -2% and the Z score stood at 0.28.

For `COc1cc(OC)cc(N2CCCN(C[C@]3(O)CCNC3)CC2)c1`, the “% Inhibition” value was -5% and the Z score amounted to 0.84.

Take `O=C(NCc1nc2cc(Br)ccc2o1)C(C1CC1)C1CC1`: the “% Inhibition” value was 1% and the Z score is given as -0.31.

On to `CN(C)c1nsc(-c2ccc(C(=O)NC3CS(=O)(=O)CC3O)cc2)n1` (centres undefined), for which the “% Inhibition” value is recorded as -8% and the Z score worked out at 1.3.

Turning to `CCN1CCC[C@@H]1CN=C(NCCOC)NCCS(=O)(=O)CC`, the “% Inhibition” value was -5% and the Z score turned out to be 0.93.

Regarding `O=c1ccnc2sc(N[C@H]3CC[C@H](Nc4ccccn4)CC3)nn12`, the “% Inhibition” value came to 0% and the Z score is -0.02.

On to `COC(=O)C1CN(Cc2ccc(Cl)c3cccnc23)CC1C` (centres undefined), for which the “% Inhibition” value was found to be 2% and the Z score is recorded as -0.35.

On to `CC(C)(C)[C@H](NCC(F)(F)F)c1nc(-c2nc[nH]n2)no1`, for which the “% Inhibition” value turned out to be 4% and the Z score is on record as -0.67.

As for `O=C(NCCN1CCC(CO)CC1)c1ccccc1-c1ccccc1F`, the “% Inhibition” value is listed as -12% and the Z score was determined as 2.57.

In the case of `CCc1nc(CN(C)C(=O)C2OCC(=O)NC2c2ccccc2)no1` (centres undefined), the “% Inhibition” value is -3% and the Z score was 0.57.

On to `COCCN(C)CCN1C[C@@H](Nc2ncnc3c2cnn3C)CC1=O`, for which the “% Inhibition” value was found to be 5% and the Z score is listed as -0.83.

Consider `CCN(C)c1cc(NC2CCN(C[C@H]3CCCO3)CC2)ncn1`, for which the “% Inhibition” value was 2% and the Z score was -0.39.

As to `COc1ccc2cc(CNC3CC4CCC(C3)N4C(=O)OC(C)(C)C)ccc2c1` (centres undefined), the “% Inhibition” value turned out to be 2% and the Z score was -0.43.

As for `CCN1CCN(c2ccc(CNCc3cccc(O)c3)cc2F)CC1`, the “% Inhibition” value worked out at 90% and the Z score was -19.29.

`COC1CCN(c2ccc(C(=O)NCc3cncc(-c4ccoc4)c3)cc2)CC1`: the “% Inhibition” value was -8% and the Z score came out at 1.65.

Turning to `O[C@@H](CNCc1cc2cc(Cl)c(Cl)cc2[nH]1)c1ccc(F)cc1`, the “% Inhibition” value worked out at 76% and the Z score was -13.27.

Take `NC(=O)c1ccccc1N1CC[C@H](NCc2ccc3c[nH]nc3c2)C1`: the “% Inhibition” value worked out at 9% and the Z score is -1.41.

On to `Cc1cc(C)nc(N2CCC(N3CCCN(C4COCC4O)CC3)CC2)n1` (centres undefined), for which the “% Inhibition” value came to 5% and the Z score is listed as -0.81.

Regarding `C[C@H](NC(=O)c1cc(O)c2ccccc2n1)c1cc2ccccc2s1`, the “% Inhibition” value is reported as -1% and the Z score was 0.21.

With `OCC[C@H](Nc1ccnc2ccncc12)C1CCCCC1`, the “% Inhibition” value came out at 8% and the Z score is recorded as -1.67.

With `COc1ccc2[nH]c(CNCc3ccc(CN4CCCCC4)s3)cc2c1`, the “% Inhibition” value is given as 7% and the Z score is given as -1.44.

As for `C=C(C)CN(Cc1c[nH]nc1-c1ccccc1F)Cc1c[nH]nc1-c1ccccc1F`, the “% Inhibition” value was -12% and the Z score is given as 2.14.

Take `c1ccc(-c2ncc(CN(Cc3cccnc3)CC3CCN(C4CCCC4)CC3)s2)cc1`: the “% Inhibition” value is on record as -9% and the Z score is listed as 1.54.

Regarding `Nc1nc(NC[C@@H](CO)Cc2ccccn2)nc2ccccc12`, the “% Inhibition” value came to 2% and the Z score is on record as -0.46.

As for `Cc1ccc(C(=O)N2CCS(=O)(=O)C[C@H]2C(=O)O)cc1C`, the “% Inhibition” value is listed as -11% and the Z score was determined as 2.12.

As to `CNc1nc(N[C@H]2CCCN(CC3CCCCC3)C2)ncc1F`, the “% Inhibition” value was 0% and the Z score is -0.1.

In the case of `O=C(C1CCNCC1)N1CC(O)C(Cc2ccnc3ccccc23)C1` (centres undefined), the “% Inhibition” value is -6% and the Z score is recorded as 1.1.

With `CC(C)(CNC1CCN(c2ccc(C(=O)NCc3ccccc3F)cc2)CC1)N1CCOCC1`, the “% Inhibition” value is on record as -9% and the Z score was 1.62.

As for `CN1CC[C@@H](CNC2CCCN(Cc3ccccc3)C2)[C@@H]1c1cccnc1` (some centres undefined), the “% Inhibition” value was found to be 3% and the Z score was -0.54.

Turning to `O=C([C@@H]1COCCN1CC(F)F)N1CCC(c2c[nH]c3cc(F)ccc23)CC1`, the “% Inhibition” value amounted to 0% and the Z score is -0.02.

Regarding `C[C@@H](c1ccc(-c2ncc(F)c(N3CCOCC3)n2)cc1)N1CCCCC1`, the “% Inhibition” value came to 1% and the Z score is recorded as -0.18.

For `Nc1ccc2c(N3CCN(CCOc4ccccc4Cl)CC3)ncnc2n1`, the “% Inhibition” value turned out to be 4% and the Z score is -0.7.

Take `CCCN1CCN([C@@H](C)CCCN(C(=O)Cc2c[nH]c3cc(Cl)ccc23)C2CC2)CC1`: the “% Inhibition” value is recorded as 3% and the Z score is recorded as -0.6.

On to `c1nc2c(c(Nc3ccc4scnc4c3)n1)CCC2`, for which the “% Inhibition” value is recorded as -5% and the Z score stood at 1.02.

As for `CCN1C[C@@H](CNCc2cnc(Nc3ccc4nccnc4c3)s2)CC1=O`, the “% Inhibition” value is -2% and the Z score is listed as 0.3.

Regarding `O=C(Cc1c[nH]c2ncccc12)N1CCCN(c2ccccc2Cl)CC1`, the “% Inhibition” value is given as 7% and the Z score was -1.44.

On to `OCCNc1cc(NCC2CCN(C3CCCC3)CC2)ncn1`, for which the “% Inhibition” value was -6% and the Z score was 0.96.

For the compound `Cc1cc(-c2nc3cc(C(C)(C)C)ccc3[nH]2)c(C)n1-n1cnnc1`, the “% Inhibition” value came to 13% and the Z score is listed as -2.25.

Regarding `CC(C)N1C2CCC1CN(c1cncc(N3CCC4CCC(C3)N4C(C)C)n1)CC2`, the “% Inhibition” value is recorded as -11% and the Z score is 2.05.

For the compound `C=C(C)CS(=O)(=O)N1CCN(c2cnn(C)c2)C(=O)C1`, the “% Inhibition” value is reported as -3% and the Z score stood at 0.62.

Turning to `Cc1ccccc1-c1cnc(-c2ccncc2)nc1[C@H]1CCCN(Cc2ccc(F)c(F)c2)C1`, the “% Inhibition” value was found to be 16% and the Z score is -2.86.

As for `NCCc1nc(N2CCC[C@H]2c2nc(-c3ccncc3)no2)c2ccccc2n1`, the “% Inhibition” value is -12% and the Z score worked out at 1.87.

Take `O[C@H]1CCCN(C2CCN(Cc3ccc4c(c3)OC(F)(F)O4)CC2)C1`: the “% Inhibition” value is recorded as -5% and the Z score amounted to 0.87.

In the case of `COc1ccc(-c2ccc(NC3CCCC3)nn2)cc1S(=O)(=O)N1CCOCC1`, the “% Inhibition” value is on record as 2% and the Z score is reported as -0.33.

`O=S(=O)(c1c[nH]c2ncccc12)N1CCCC[C@H]1c1nc(-c2cccc(F)c2)c[nH]1`: the “% Inhibition” value is listed as -2% and the Z score turned out to be 0.35.

For the compound `CCc1noc(CNC2CCN(c3cccc(-c4cccc(F)c4)c3)CC2)n1`, the “% Inhibition” value is -11% and the Z score was found to be 1.83.

Consider `COc1cc(-c2onc(N3CCC(N4CCN(CCO)CC4)CC3)c2C(=O)O)ccc1F`, for which the “% Inhibition” value is on record as -2% and the Z score amounted to 0.32.

With `Cc1c(-c2cc(-c3nc4ccc(Cl)cc4[nH]3)nc(N)c2C#N)cnn1C`, the “% Inhibition” value came out at 5% and the Z score is reported as -1.11.

As to `CC(C)N1CCC(CN2CCN3CCN(C)C[C@H]3C2)CC1`, the “% Inhibition” value came out at 2% and the Z score is on record as -0.5.
